Source: PubChem BioAssay AID493208 (National Center for Advancing Translational Sciences (NCATS), 2011)
The whole screen tested about 44,000 compounds, of which about 340 (0.77%) were called active. Inconclusive results (about 5%) are left out. Calls follow the shape of the dose curve; as a rule, active = well fitted inhibition curve with a large enough effect; inconclusive = small, poorly fitted or top-dose-only effect; inactive = flat fitted curve, though single readings scatter. The list shows a part of the results.

Assay: Acumen qHTS Assay for Inhibitors of the mTORC1 Signaling Pathway in MEF (Tsc2-/-, p53-/-) Cells: Sytravon;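 also: plate controls were DMSO for no effect and rapamycin for full effect; nearly all actives have a fitted effect of over 50% in size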
Details: phospho-rpS6 immunofluorescence/PI, 24 h; series mostly up to 38.3 µM; activity change, negative = inhibition: at the top concentration
Method in brief: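 Tsc2-/-, p53-/- MEFs (empty-vector stable line) in DMEM + 10% FBS were treated with compounds 24 h at 37 degree Celsius, fixed, and immunostained for phospho-rpS6 (Alexa-488) with propidium iodide counterstain. Laser-scanning cytometry gave % positive cells, normalized against 7.5 nM rapamycin and DMSO.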

Activity change, negative = inhibition, inactive:
C=CCC(CC=C)(CNC(=O)C(=O)Nc1ccc(C)cc1)c1ccccc1 -4.7%, CCOc1ccc(NC(=O)CN2CCN(S(=O)(=O)c3ccc(OC)cc3)CC2)cc1 -5.76%, CCOc1cc(OCC)cc(C(=O)Nc2cccc(-c3nc4ccccc4[nH]3)c2)c1 -21.2%, CCn1c(=O)cc(OCC(=O)NCc2ccccc2OC)c2ccccc21 -17.4%, Cc1c2cnn(CC(=O)N3CCN(c4ccccc4)CC3)c(=O)c2c(C)n1Cc1ccccc1Cl -6.36%, CCCCN(C)CCCNC(=O)C1CCN(S(=O)(=O)CC)CC1 5.84%, CSc1ncc(Cl)c(C(=O)Nc2ccc(S(=O)(=O)Nc3nccc(C)n3)cc2)n1 4.79%, CC(=O)c1ccc(NC(=O)CCc2c(C)nc3c(c2C)c(=O)n(C)c(=O)n3C)cc1 -0.286%, CC(=O)C1=C(c2ccccc2)N(C(C)=O)n2c(nnc2C2CCCCC2)S1 -22.1%, CCCCN(C)CCCNC(=O)CN1N=C(c2ccc(OC)cc2)CCC1=O 0.311%, Cc1ccc(CCNC(=O)c2ccc3[nH]c(C)c(C)c3c2)cc1 -1.63%, Cc1cc(C)cc(-n2cnc3cc(C(=O)NC4CCCCCC4)ccc32)c1 2.16%, O=C(NCc1ccccc1F)c1sc2ncccc2c1-n1cccc1 1.2%, CCn1cc2nc(SCC(=O)Nc3ccc(C)cc3)n(Cc3ccc(C)cc3)c(=O)c2n1 -4.94%, CCN(CC)c1ccc(NC(=O)CN2CCN(c3ccccc3F)CC2)cc1 0%, Cc1[nH]c2ccc(Br)cc2c1CCNC(=O)c1cc2ccccc2oc1=O -16%, CCOc1ccc(C2=NC(c3cccs3)=Nc3ccc(CC)cc3N2)cc1OCC -10.1%, O=S(=O)(NCCS(=O)(=O)N1CCN(c2cccc(Cl)c2)CC1)c1ccc(F)cc1 2.1%, CC(=O)N1CCCc2cc(S(=O)(=O)N3CCCC(C(=O)Nc4ccc(C)cc4C)C3)ccc21 (centres undefined) -0.0922%, COc1ccc(-n2nc3cc(C)c(NC(=O)c4ccc(-c5ccc(Br)cc5)o4)cc3n2)cc1 -0.38%, COc1cc(OC)cc(C(=O)Nc2cc3c(cc2N2CCOCC2)n(C)c(=O)n3C)c1 -19.3%, Cc1cc(C)n(CCc2nc3c4ccccc4nc(N4CCN(c5cccc(C)c5C)CC4)n3n2)n1 -0.153%, Cc1cccc(NC(=O)CN2C(=O)C(c3ccccc3)=NC23CCC(C)CC3)c1 (centres undefined) -2.38%, CC(=O)c1cccc(-n2c(=O)c3c4c(sc3n(Cc3cccc(C)c3)c2=O)CN(C(C)=O)CC4)c1 -0.271%, CCOc1ccccc1CNC(=O)CCc1c(C)nn(-c2ccc(N3CCCC3)nn2)c1C 7.15%, Cc1ccc(/C=C(\C#N)c2nc(-c3ccc(-c4ccccc4)cc3)cs2)cc1 -6.17%, CCOC(=O)c1cccc(NC(=O)CCS(=O)(=O)c2ccc3c(c2)CC(=O)N3C)c1 -6.6%, Cc1ccc(S(=O)(=O)C2(C(=O)Nc3ccc(Cl)c(C(F)(F)F)c3)CC2)cc1 2.24%, CC(C)c1ccc(NC(=O)Cn2c(=O)n(CC3CCC(C(=O)NCCc4ccccc4)CC3)c(=O)c3ccccc32)cc1 (centres undefined) -20.6%, COC(=O)c1ccc(Cl)cc1NC(=O)NCCc1c(C)nn(C)c1C 0%, Cc1c(C(=O)N2CCOCC2)oc2c1-c1nn(CC(=O)NCc3cccc(F)c3)cc1CC2 -2.38%, Cc1ccc(-n2c(=O)c3cccnc3n2CC(=O)Nc2cc(C)cc(C)c2)cc1 -0.0454%, COc1ccccc1CNC(=O)Cn1c(=O)nc(-c2ccccc2F)c2cc(Cl)ccc21 0%, COc1ccc(-n2ccnc2SCC(=O)Nc2ccc3c(c2)OCO3)cc1 -11%, CCOC(=O)c1c(C)[nH]c(C)c1S(=O)(=O)N1CCC(C(=O)Nc2cc(C)ccn2)CC1 -0.454%, Cc1ccc(Cl)cc1N1CCN(C(=O)C2CCC(CNS(=O)(=O)c3cccs3)CC2)CC1 (centres undefined) -2.9%, Cc1cccc(N2CCN(C(=O)CS(=O)(=O)c3cccc4nsnc34)CC2)c1C -0.351%, Cc1ccc(CNc2ccc(-c3nc(-c4ccncc4)no3)cc2[N+](=O)[O-])cc1 0.323%, Cc1ccc(-c2nc(S(=O)(=O)c3ccccc3)c(N3CCN(c4ccccc4)CC3)o2)cc1 1.3%, Cc1ccc2nc(COc3ccccc3NC(=O)COc3ccc(F)cc3)cc(=O)n2c1 -19.2%, CCc1ccccc1NS(=O)(=O)c1ccc2[nH]cc(C(=O)N(CC(C)C)CC(C)C)c(=O)c2c1 -5.67%, COc1ccccc1N1CCN(C(=O)c2cc(CC(C)C)on2)CC1 -25.6%, CCc1ccccc1N(CC)C(=O)c1c(C)oc2ncn(C)c(=O)c12 3.28%, O=C(Nc1ccccc1C(=O)OCc1cc(=O)n2c3c(sc2n1)CCCC3)c1ccc(F)cc1 15.5%, COc1ccc(NC(=O)C2CCN(S(=O)(=O)c3ccc4c(c3)CCCC(=O)N4)CC2)cc1OC -1.37%, Cc1cccc(C(C)C)c1NC(=O)Cn1c(=O)oc2cc(S(=O)(=O)N3CCCC3)ccc21 -19.1%, CCc1ccc2nc(N(CCN(CC)CC)C(=O)c3cccs3)sc2c1 -7.02%, COc1cccc(C(=O)Nc2nc3nc(-c4ccccc4)cc(=O)n3[nH]2)c1 5.57%, O=C1c2oc3ccccc3c(=O)c2C(c2cccc(O)c2)N1c1nncs1 (centres undefined) -18.8%, O=C(Cn1c(=O)nc(-c2ccccc2)c2ccccc21)NCCc1ccccc1 2.78%, CCOC(=O)c1c(-c2ccc(C)cc2)csc1NC(=O)c1cc(=O)c2cc(C)ccc2o1 0.927%, CC(=O)c1ccc(NC(=O)CN2C(=O)CN(C)C(=O)c3ccccc32)cc1 4.02%, COc1cccc(CNC(=O)C2=C(C)C(=O)OC23CCN(C(C)=O)CC3)c1OC -5.1%, COc1ccc(-c2oc3ncn4nc(COc5cccc(C)c5C)nc4c3c2-c2ccc(OC)cc2)cc1 -17.2%, COc1cc(Nc2nc(SCc3ccc(Cl)cc3)nc3ccccc23)cc(OC)c1 -4.59%, CCC(C(=O)NCc1cc(OC)ccc1OC)n1nc(C)c2sc3ccccc3c2c1=O (centres undefined) -0.84%, CN(C)c1cccc(C(=O)N2CCC(c3c[nH]c4ccccc34)(c3c[nH]c4ccccc34)CC2)c1 -0.156%, Cc1cccc(CNC(=O)c2ccc(N3Cc4ccccc4Oc4ncccc43)s2)c1 -11.2%, COc1cccc(C(=O)N2CCC(C(=O)Nc3cccc(Cl)c3)CC2)c1 -25.3%, COc1cc(C(=O)Nc2ccc(NC(=O)c3ccc(C(C)(C)C)cc3)cc2)cc(OC)c1OC 6.51%, O=C(COCc1cc(-c2cccs2)on1)N1CCN(c2ccccc2)CC1 -6.71%, COc1ccccc1C(=O)Nc1ccc2nc(SCCOc3ccccc3C)sc2c1 -4.29%, CC(C)c1ccc(N2C(=O)CSC23C(=O)N(Cc2cccc(F)c2)c2ccccc23)cc1 (centres undefined) -8.43%, COc1ccc(OC)c(CNC(=O)C2CCCN(c3ncnc4onc(-c5ccc(F)cc5)c34)C2)c1 (centres undefined) -0.843%, Fc1ccc(NCc2nnc3n2CCCCC3)cc1Cl 0.408%, O=C(Cn1c(=O)oc2cc(S(=O)(=O)NCc3ccccc3)ccc21)Nc1cccc(F)c1 -7.15%, COC(=O)c1ccc(C2Nc3c(C)cccc3-c3cc(C)nn32)cc1 (centres undefined) 3.74%, COc1ccccc1CNc1nc2c(S(=O)(=O)c3ccc(C)c(C)c3)nnn2c2ccc(Cl)cc12 0.396%, COc1ccc(NC(=O)C(NS(=O)(=O)c2cccc3nsnc23)C(C)C)cc1 (centres undefined) -8.72%, COc1ccc(NC(=O)c2cc3ccccc3o2)c(OC)c1 -1.26%, O=C(c1ccc(F)cc1)c1cn(Cc2ccccc2)c2cc3c(cc2c1=O)OCO3 -14.6%, O=C(Nc1c(C(=O)N2CCN(c3ccccc3F)CC2)oc2ccccc12)c1cccc(F)c1 -10.9%, COc1ccc(C2=CC(c3cc(Br)ccc3F)n3c(nc4ccccc43)N2)cc1 (centres undefined) -1.26%, Cc1oc(-c2ccc(C(=O)Nc3ccc(F)cc3)cc2)nc1COc1ccccc1 -0.391%, CC1CCCN(c2cc3c(cc2F)c(=O)c(S(=O)(=O)c2cccc(Cl)c2)cn3Cc2ccccc2)C1 (centres undefined) -0.743%, O=C(COc1ccccc1Cl)Nc1ccc(-c2nc3ccccc3s2)cc1 -20.2%, COc1ccc(CCNC(=O)C(=O)NCC(c2ccco2)S(=O)(=O)c2ccc(C)cc2)cc1 (centres undefined) -13.7%, CC(C)NC(=O)c1ccc(Cn2c(SCc3ccc(F)cc3)nc3cccnc32)cc1 -14.3%, O=C(CCn1c(=O)c2cccn2c2cccnc21)N1CCN(c2cccc(C(F)(F)F)c2)CC1 -6.73%, COc1ccc(OC)c(/C=C/c2nc3ccccc3c(=O)n2-c2ccc(F)c(Cl)c2)c1 9.42%, Cc1ccc(NC(=O)C2CCCN(S(=O)(=O)c3c(C)n[nH]c3C)C2)c(C)c1 (centres undefined) -9.92%, COc1ccc(C(=O)/C=C/c2cn(CC(O)CN3CCc4ccccc43)c3ccccc23)cc1OC (centres undefined) -6.63%, CCC(C(=O)Nc1cc(C)ccc1C)n1c(=O)c(C(F)(F)F)nc2ccccc21 (centres undefined) -1.81%, COCC(=O)n1nc(-c2ccco2)nc1NCc1ccccc1Cl -5.52%, COc1cc(OC)cc(C(=O)Nc2ccc(-c3nc4ccccc4s3)cc2C)c1 1.32%, Cc1cc(C)n(-c2nc(C)c(C)c(=O)n2CC(=O)Nc2ccc([N+](=O)[O-])cc2)n1 -1.07%, COc1ccccc1CNC(=O)CCc1c(C)c2cc3c(C)c(C)oc3cc2oc1=O 3.07%, CCc1nn(CC(=O)NCc2ccco2)c(=O)c2cc3c(OC)cccc3n12 -3.69%, CCOC(=O)c1ccc(NC(=O)Cn2cc(C(=O)C3CC3)c3ccccc32)cc1 11.8%, COc1ccc(CCNC(=O)c2ccc3c(c2)N(Cc2ccc(F)cc2)C(=O)c2ccccc2S3(=O)=O)cc1OC -0.559%, Cc1c(C(=O)Nc2cccc(C(F)(F)F)c2)sc2nc[nH]c(=O)c12 -10.3%, Cc1ccc(-n2ncc3c(NCCCN4CCOCC4)ncnc32)cc1C 6.86%, CCOC(=O)c1ccc(NC(=O)CCCn2c(=O)c3cccn3c3ccccc32)cc1 11.1%, COc1ccc(OC)c(C2=NS(=O)(=O)N(C)C(C(=O)Nc3ccc(F)cc3F)=C2)c1 0.4%
